About 6,900 (2%) of roughly 340,000 compounds were called active. Cut-off read from the data, not from the text of the source: active = inhibition above about 30%; inactive = below that, where a call was filed. The list shows a part of the results, in another mix than the full data. Where no call is shown, the source filed none. Some structures have more than one record in an assay (separate samples or runs), and their calls can disagree.
These compounds were tested against D(2) dopamine receptor (Homo sapiens) (UniProt P14416) (assay: HTS Assay for Allosteric Antagonists of the Human D2 Dopamine Receptor: Primary Screen for Antagonists). Details: HEK293 TREx D2 cells, calcium flux, dopamine EC80; at 10 µM; stronger effect = higher value.
Chain of UniProt P14416 (P14416 whole entry, looked up): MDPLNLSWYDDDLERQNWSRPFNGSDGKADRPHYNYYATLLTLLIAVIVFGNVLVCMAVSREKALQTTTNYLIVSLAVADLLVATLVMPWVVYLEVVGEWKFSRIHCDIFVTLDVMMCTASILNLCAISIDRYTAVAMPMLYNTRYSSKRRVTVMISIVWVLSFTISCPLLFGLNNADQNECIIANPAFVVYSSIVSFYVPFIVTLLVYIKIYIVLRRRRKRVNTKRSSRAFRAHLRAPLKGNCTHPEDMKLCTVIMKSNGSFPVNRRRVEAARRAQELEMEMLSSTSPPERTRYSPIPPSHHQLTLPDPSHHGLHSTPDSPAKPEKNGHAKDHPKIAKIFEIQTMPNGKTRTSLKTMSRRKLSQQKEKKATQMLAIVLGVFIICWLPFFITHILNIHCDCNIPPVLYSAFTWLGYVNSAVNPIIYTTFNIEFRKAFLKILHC
Summary of the method: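 Calcium flux kinetic readout in an inducible HEK293 TREx D2 line plated overnight at 30 C. After 180 s compound exposure, an EC80 dopamine challenge follows with another 180 s kinetic read to detect antagonism.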
For `COc1ccc(CCNC(=O)c2ccc3c(c2)N=C(C)c2cc(C)ccc2S3)cc1OC`, the inhibition was -15.4%. In the case of `CCc1ccc(NC(=O)Cn2c(=O)c(CNc3ccccc3)cc3cc(OC)c(OC)cc32)cc1`, the inhibition is reported as -9.68%. Work on `Cc1cccc(NC(=O)C2CCCN(S(=O)(=O)c3c(C)[nH]c(=O)[nH]c3=O)C2)c1C` (stereo not given) yielded an inhibition of 3.03%. Compound `COc1ccc(-c2nc3ccccc3o2)cc1NC(=O)C(C)(C)Oc1ccc(Br)cc1` has an inhibition of 0.583%. `CC(=O)c1cccc(NC(=O)[C@H](Cc2ccccc2)N2Cc3ccccc3C2=O)c1` showed an inhibition of 21.2%. Compound `CCC(NC(=O)Nc1ccc(OC)c(OC)c1)c1c(-n2cccc2)sc2c1CCN(C)C2` (stereo not given) has an inhibition of -4.98%. `COc1ccc(N2CC(NC(=O)C3CC3)CC2=O)cc1` (stereo not given) was tested, and the inhibition was 15.8%. With `COc1ccccc1C(=O)NCCSc1c(C)[nH]c2ccccc12` the inhibition was -9.76%. In the case of `CC(C)(C)c1ccc(OCC(=O)N/N=C/c2cc(Br)ccc2OC(=O)c2ccco2)cc1`, the inhibition is reported as active: 34%. With `CCc1nn2c(=O)cc(COC(=O)c3ccccc3NC(=O)COc3ccc(F)cc3)nc2s1` the inhibition was -12.4%. In the case of `COCCNC(=O)Cn1cnc2sc(C)c(S(=O)(=O)N3CCN(c4ccccc4OC)CC3)c2c1=O`, the inhibition is reported as 17.9%. For `CCOC(=O)c1[nH]c(C)c(CCC(=O)Nc2cccc(C(F)(F)F)c2)c1C`, the inhibition was 5.03%. With `CC(CNC(=O)c1nnc(Cc2cccc(F)c2)o1)c1ccccc1` (stereo not given) the inhibition was 8.11%. With `COc1cc(CNCCSc2nnnn2C)ccc1OCc1ccc(F)cc1` the inhibition was -14.1%. Compound `CCOc1ccc(-n2cc(-c3ccccc3)c3c(NC4CCCCC4)ncnc32)cc1` has an inhibition of 11.2%. Work on `Cc1nn(-c2ccccc2)c(OC(=O)c2ccccc2Cl)c1S(=O)(=O)c1ccccc1` yielded an inhibition of 8.11%. `COc1ccc2c(c1)c1c(c(=O)n(-c3cccc(Cl)c3)c(=O)n1CC(=O)NCC1CCCO1)n2C` (stereo not given) gave an inhibition of 8.33%. For `N#CCC(=N)N1CCN(c2cccc(Cl)c2)CC1`, the inhibition was active: 62.5%. With `CCOc1ccc(-c2nnc(SCC(=O)NCc3ccc(C)cc3)nc2-c2ccc(OCC)c(OC)c2)cc1OC` the inhibition was -16.5%. Work on `CCOc1ccc(NC(=O)CSC2=Nc3ccccc3C3=NC(CCC(=O)NCc4cccs4)C(=O)N23)cc1` (stereo not given) yielded an inhibition of -15.8%. `Cc1ccc(CNC(=O)CCS(=O)(=O)c2ccc3c(c2)CC(C)N3C(=O)C2CC2)cc1` (stereo not given) gave an inhibition of -8.86%. For `COc1ccc(Cn2c3nc4ccccc4nc3c3c(=O)n(Cc4ccco4)cnc32)cc1`, the inhibition was active: 40.2%. For `Fc1ccc(-c2csc(=Nc3cccc(C(F)(F)F)c3)n2Cc2ccc3c(c2)OCO3)cc1`, the inhibition was -0.614%. In the case of `O=C1C(=O)N(C2CCNCC2)CCN1Cc1ccccc1`, the inhibition is reported as 14.4%. With `Cc1cccc(C)c1NC(=O)CCCn1c(=O)c2cccn2c2ccccc21` the inhibition was 7.85%. `Fc1ccc(-c2cc(-c3ccccc3)c3c(n2)-c2ccccc2OC3)cc1` gave an inhibition of -11.2%. For `COc1ccc(-c2nc(CCNC(=O)c3ccccc3)cs2)cc1OC`, the inhibition was -2.9%. For `Cc1cccc(/C=N\NC(=O)c2ccc(Cl)cc2)c1O`, the inhibition was active: 30.2%. `O=C(Nc1sc2c(c1C(=O)NCC1CCCO1)CCC2)c1cc(=O)c2cc(Cl)ccc2o1` (stereo not given) gave an inhibition of -5.79%. For `Cc1ccc(CCNC(=O)c2ccc3c(c2)N(Cc2ccccc2F)C(=O)c2ccccc2S3=O)cc1` (stereo not given), the inhibition was 4.58%. Compound `COc1cccc(NC(=O)CCCn2c(=O)c3cccn3c3cccnc32)c1` has an inhibition of 3.07%. In the case of `CCCCCCC(C)NC(=S)Nc1cc(S(=O)(=O)N(C)C)ccc1C` (stereo not given), the inhibition is reported as active: 92.2%. `CCOC(=O)c1cc(-c2ccccc2)n(CC(=O)Nc2ccccc2OCC)c1C` showed an inhibition of -7.68%. With `Cn1nnnc1SCCCNCc1cc(Br)ccc1OCc1ccccc1F` the inhibition was -18.8%. With `COc1cc(NS(=O)(=O)c2c(C(=O)N3CCCCC3)c(C)n(C)c2C)cc(OC)c1OC` the inhibition was 3.69%. In the case of `CCC(C)c1ccccc1OCC(=O)Nc1ccc(S(=O)(=O)Nc2cc(C)on2)cc1` (stereo not given), the inhibition is reported as -8.96%. For `CC1CCc2c(sc3nnn(CC(=O)Nc4c(C(C)C)cccc4C(C)C)c(=O)c23)C1` (stereo not given), the inhibition was 2.3%. Work on `O=C(Nc1cccc2cccnc12)c1ccc(-c2cccc(Cl)c2)o1` yielded an inhibition of 11.6%. `COc1ccc(-c2cc3ncc(C(=O)c4cc([N+](=O)[O-])ccc4O)cn3n2)cc1` showed an inhibition of 7.37%. For `CCCn1c2ccccc2c2cnn(CC(=O)NCCCN(CC)c3ccccc3)c(=O)c21`, the inhibition was 8.81%. In the case of `COc1cc(NC(=O)CN2C(=O)COc3ccc(S(=O)(=O)NC4CCCC4)cc32)cc(OC)c1`, the inhibition is reported as 8.79%. `O=C(c1ccc2c(c1)N(Cc1c(F)cccc1Cl)C(=O)c1ccccc1S2)N1CCCC1` was tested, and the inhibition was -15.1%. With `CCc1ccc(NC(=O)c2ccc(Cn3nc(N4CCN(c5ccccc5)CC4)ccc3=O)o2)cc1` the inhibition was 6.34%. `Cc1ccc(Cl)cc1-n1ncc2c(Nc3ccc4c(c3)OCCO4)ncnc21` was tested, and the inhibition was 21.5%. In the case of `O=C1C(NS(=O)(=O)c2cccs2)=C(N2CCOCC2)C(=O)c2ccccc21`, the inhibition is reported as active: 38.1%. `CC(=O)N1CCCC1c1nc2ccccc2n1Cc1ccc(F)cc1` (stereo not given) was tested, and the inhibition was -5.36%. `COc1ccc(CNC(=O)c2cc3cccc4c3n2CC(C)S4)cc1OC` (stereo not given) showed an inhibition of -3.05%. Compound `COCCCn1c(=O)c2sccc2n2c(CCCC(=O)Nc3cccc(OC)c3)nnc12` has an inhibition of -7.16%. Compound `Cc1ccc(CNS(=O)(=O)c2ccc3[nH]c4c(c3c2)CCCCC4)cc1` has an inhibition of -0.405%. Work on `Cc1cccc(NC(=O)C2CCCN(S(=O)(=O)c3ccc4c(c3)CCCC(=O)N4)C2)c1` (stereo not given) yielded an inhibition of -10.9%. `COc1ccc(CC(=O)OCC(=O)NCc2ccco2)cc1` was tested, and the inhibition was active: 35.5%. `COc1ccc(Cl)cc1NC(=O)Cn1nc(C(F)(F)F)c2c1CCCC2` showed an inhibition of -9.89%. For `CCN(CC)S(=O)(=O)c1ccc(C(=O)NC2CC(=O)N(c3ccc(OC)c(OC)c3)C2)cc1` (stereo not given), the inhibition was -12.4%. In the case of `CN1CCCCC1CCN1c2ccccc2Sc2ccc(S(C)=O)cc21` (stereo not given), the inhibition is reported as active: 95.7%. In the case of `CC(=O)c1ccc(NC(=O)c2cc3sccc3n2Cc2ccc(Cl)cc2)cc1`, the inhibition is reported as 8.7%. In the case of `Cc1ccc(N(CC(=O)NCCSc2ccccc2)S(=O)(=O)c2ccc(F)cc2)cc1`, the inhibition is reported as -1.08%. For `CCOCCCNC(=O)C(=O)Nc1c2c(nn1-c1ccccc1)CSC2`, the inhibition was -13.1%. `O=C(COc1ccc(Cl)cc1)NCC(c1ccco1)S(=O)(=O)c1ccc(F)cc1` (stereo not given) showed an inhibition of 2.15%. `COc1ccc2c(C)c(CCC(=O)NCc3ccccc3OC)c(=O)oc2c1` showed an inhibition of 4.34%. `COc1ccc(C)cc1-n1nnc(S(=O)(=O)c2ccc(C)cc2)c1C` gave an inhibition of 9.99%. In the case of `O=C(Cn1c(-c2cccs2)cc2cc(F)ccc21)N1CCN(c2ccccc2)CC1`, the inhibition is reported as 1.7%. Compound `COc1ccc(CNc2oc(/C=C/c3cc(OC)c(OC)c(OC)c3)nc2C#N)cc1` has an inhibition of 27.2%. Compound `CCOc1ccc(Nc2oc(/C=C/c3ccc(OC)c(OC)c3)nc2C#N)cc1` has an inhibition of 0.001%. `Cc1cccn2c(=O)c(C(=O)NC(C)c3ccccc3)c(O)nc12` (stereo not given) was tested, and the inhibition was 4.09%. In the case of `O=S(=O)(c1ccc(OCC(O)CN2CCN(c3ccccc3)CC2)cc1)N1CCOCC1` (stereo not given), the inhibition is reported as active: 95.9%. Work on `COc1cccc(Nc2nc3c(S(=O)(=O)c4cc(C)ccc4C)nnn3c3ccsc23)c1` yielded an inhibition of -13.9%. `Cc1ccc(NC(=O)N2CCN(Cc3nc4ccc(C)cc4o3)CC2)cc1` gave an inhibition of 8.86%. In the case of `O=C(CN1c2ccc(Br)cc2-c2ccccc2S1(=O)=O)N1CCCCC1`, the inhibition is reported as -9.65%. For `COc1cc(/C=N/NC(=O)c2cccc3ccccc23)cc(OC)c1OC`, the inhibition was active: 30.4%. For `CC(=O)Nc1c(C)nn(-c2ccccc2)c1N1CCC(C(=O)Nc2ccccc2C(F)(F)F)CC1`, the inhibition was 7.99%. `CCOC(=O)N1CCN(S(=O)(=O)N2CCCC(C(=O)NCc3cc(Br)ccc3OC)C2)CC1` (stereo not given) was tested, and the inhibition was -28%. `Cc1cc(=O)c2cc(C(=O)Nc3ccc(F)cc3)ccc2[nH]1` was tested, and the inhibition was 14.4%. `CC(C)c1ccc2c(c1)c(SC(C)(C)C)c(CC(C)(C)C(=O)O)n2Cc1ccc(Cl)cc1` was tested, and the inhibition was active: 47.1%. Compound `Cc1cc(C)c(NC(=O)CSC2=Nc3ccccc3C3=NC(CC(=O)NCc4cccs4)C(=O)N23)c(C)c1` (stereo not given) has an inhibition of 0.407%. With `CCN1CCc2nc3sc(C(=O)Nc4ccccc4OC(F)(F)F)c(N)c3cc2C1` the inhibition was -11%. Work on `CCOc1ccc(CNC(=O)c2cc3cc(S(=O)(=O)N4CCCCC4)ccc3n2C)cc1` yielded an inhibition of -4.26%. In the case of `Oc1ccc(NCc2ccccc2OCc2ccccc2)cc1`, the inhibition is reported as 4.92%. In the case of `COc1ccc(C(=O)NCCc2csc(-c3ccc(Cl)cc3)n2)c(OC)c1`, the inhibition is reported as -9.73%. `CSc1ccc(CCNC(=O)CN2C(=O)COc3ccc(S(=O)(=O)N4CCCCCC4)cc32)cc1` gave an inhibition of 10.9%. `Cc1ccc(Cl)cc1-n1c(SCC(=O)NCc2ccccc2)nc2n[nH]c(C)c2c1=N` showed an inhibition of -6.6%. `COc1ccc(S(=O)(=O)Nc2cccc(-c3ccc(N4CCCCC4)nn3)c2)cc1F` was tested, and the inhibition was -5.17%. In the case of `COc1ccccc1N=Cc1nc(-c2ccccc2)oc1OC(C)=O`, the inhibition is reported as active: 50.1%. Compound `COc1ccc(NC(=O)C(NS(=O)(=O)c2cccc3nsnc23)C(C)C)cc1OC` (stereo not given) has an inhibition of -16.8%. `COc1ccc(-c2nc(S(=O)(=O)c3ccccc3)c(N3CCC(C)CC3)o2)cc1` gave an inhibition of 5.76%. `CN1C(=O)c2ccccc2Sc2ccc(NC(=O)N3CCN(c4ccc(F)cc4)CC3)cc21` showed an inhibition of 22.1%. For `CC(C)(C)C(=O)NC(=S)NNC(=O)c1ccc(Cl)cc1Cl`, the inhibition was active: 91.2%. With `CCN(CC)CCNC(=O)c1cc2c(-c3cccc(OC)c3)nn(C)c2s1` the inhibition was 15.5%. Work on `CCOc1ccccc1NC(=O)Cn1c(=O)n(CCCC(=O)NCc2ccc(C)cc2)c(=O)c2ccccc21` yielded an inhibition of 5.41%. Compound `Cc1nn(C(C)C(=O)NCc2ccco2)c(=O)c2nn(-c3ccccc3)c(C)c12` (stereo not given) has an inhibition of 4.14%. `Cc1ccc2[nH]cc(C(c3ccccc3)c3ccc(Cl)s3)c2c1` (stereo not given) was tested, and the inhibition was 2.24%. `COc1ccccc1OCC(=O)NCCS(=O)(=O)N1CCN(c2ccccc2OC)CC1` was tested, and the inhibition was 12.4%. Work on `Cc1cccc2sc(N(Cc3cccnc3)C(=O)c3ccco3)nc12` yielded an inhibition of -11.7%. Work on `CCOC(=O)c1c(C)[nH]c(C)c1S(=O)(=O)N1CCCC(C(=O)N2CCN(c3cccc(Cl)c3)CC2)C1` (stereo not given) yielded an inhibition of 3.36%. Work on `COc1ccccc1C(=O)Nc1ccc(-c2cc(C(F)(F)F)nn2-c2ccccc2)cc1` yielded an inhibition of -26.7%. `COc1ccc(CCNC(=O)CN(c2ccccc2)S(=O)(=O)N(C)C)cc1` showed an inhibition of 13.7%.
Note: 0% is about no effect.
